Where “and” joins values, the source holds several entries; their conditions need not be identical. Identical values can stand only once. The campaign covered roughly 350,000 compounds. About 9,900 (2.8%) were called active. This list was built around the results that the source calls inconclusive (neither active nor inactive); the mix of calls is not that of the screen. The call rests on the fitted dose curve; in most records, active means well fitted activation curve with a large enough effect; inconclusive means small, poorly fitted or top-dose-only effect; inactive means no such curve, though single readings can be large or run the other way. Potencies of inconclusive entries are doubtful fits and often do not repeat.
experiment: A quantitative high throughput screen for small molecules that induce DNA re-replication in MCF 10a normal breast cells.; further: nearly all actives have a fitted effect of over 50% in size; conditions: MCF 10A DNA re-replication, Hoechst nuclear intensity, 48 h; series mostly up to 46.1 µM
Potency means the concentration at half of the fitted maximal effect; tags describe the fitted curve by direction and shape.

Row | Structure (SMILES) | Potency
1 | CCS(=O)(=O)c1ccc(O)c(NC(=O)Nc2ccc(C(C)(C)C)cc2)c1 | inactive
2 | CC(=O)Nc1nc(C)c(Cc2ccccc2)c(=O)[nH]1 | inconclusive: 1.84 µM [activator, partial curve]
3 | O=[N+]([O-])c1ccc(O)c(Nc2ncnc3ccc(Br)cc23)c1 | active: 13 µM
4 | CCOc1ccc(NS(=O)(=O)c2cccc(C(=O)N3CCN(C/C=C/c4ccccc4)CC3)c2)cc1 | inconclusive: 23.1 µM [activator, single point]
5 | Cc1cc(N2CCN(C)CC2)nc2ccc(NC(=S)NCCCN3CCc4ccccc4C3)cc12 | inconclusive: 29.1 µM [activator, single point]
6 | CC(=O)NC(CC(=O)OCC(=O)N1CCN(S(=O)(=O)c2ccc(C)cc2C)CC1)c1ccccc1 (stereo not drawn) | inactive
7 | O=C(/C=C/c1cc(Br)ccc1F)OCC(=O)N1CCOCC1 | inactive
8 | O=C(O)c1ccc(N/N=C/c2ccc3ncccc3c2)cc1 | inactive
9 | O=C(NCc1ccccc1)[C@@H]1C[C@H]1[C@@H](NP(=O)(c1ccccc1)c1ccccc1)c1ccccc1 | inconclusive: 0.461 µM [activator, full curve, poor fit]
10 | CCOC(=O)c1cc(C(=O)c2cc(Br)ccc2O)coc1=N | inconclusive: 0.82 µM [activator, full curve, poor fit]
11 | COc1ccccc1NC(=O)CCCC(=O)OCC(F)(F)C(F)F | inactive
12 | N#Cc1cc(Nc2c(N)nc[nH]c2=O)c([N+](=O)[O-])cc1C#N | inconclusive: 0.184 µM [activator, full curve, poor fit]
13 | Cc1ccc(S(=O)(=O)/N=C2\C=C(Nc3ccc(O)cc3)C(=O)c3ccccc32)cc1 | active: 3.26 µM
14 | CCOc1nc(C#N)nc(N2CCCCC2)n1 | inconclusive: 20.6 µM [activator, single point]
15 | COc1cc2c(cc1OC)C(=O)N1[C@H]3c4ccccc4OC[C@@H]3[C@H](c3ccccc3)[C@]1(C)C(=O)N2 | inactive
16 | CCn1c2ccccc2c2cc(NS(=O)(=O)c3ccccc3C)ccc21 | inconclusive: 18.4 µM [activator, single point]
17 | O=C(COc1ccccc1)N/N=C/c1ccc2c(c1)OCO2 | inconclusive: 29.1 µM [activator, single point]
18 | CCO[C@@H]1OC(C(=O)NC2CC2)=C[C@H](c2coc3ccccc3c2=O)[C@H]1CCCO | inactive
19 | Cc1cccc(CN2C[C@]34CC[C@@H](C[C@@H]3S2(=O)=O)O4)c1 | inconclusive: 7.31 µM [activator, single point]
20 | CC(=O)NC1[C@H](O)C[C@@](O)(C(=O)O)O[C@H]1[C@H](O)[C@H](O)CO (stereo partly drawn) | inactive
21 | CCCCN(C(=O)c1cccc(S(=O)(=O)N(CC)c2ccccc2)c1)c1c(N)n(CCCC)c(=O)[nH]c1=O | inactive
22 | O=C(CCn1nnc(-c2cccs2)n1)N1CCc2ccccc2C1 | inconclusive: 18.4 µM [activator, partial curve, poor fit]
23 | Cc1c(Br)c([N+](=O)[O-])nn1C(C)C(=O)N1CCc2ccccc2C1 (stereo not drawn) | inactive

Row | Structure (SMILES) | Potency
24 | CC1(C)CC(/C=C/c2ccccc2)=Nc2ccccc2N1 | inconclusive: 29.1 µM [activator, single point]
25 | O=c1c(Cl)c(NCc2ccc(F)cc2Cl)cnn1C12CC3CC(CC(C3)C1)C2 | inconclusive: 0.82 µM [activator, full curve]
26 | Cc1ccccc1N(C(=O)CS(=O)CC(=O)Nc1ccc(F)cc1)C(C)C(=O)NC(C)(C)C (stereo not drawn) | inconclusive: 29.1 µM [activator, single point]
27 | CCN(C(=S)NCCOC)c1cccc2ccccc12 | inconclusive: 23.1 µM [activator, partial curve, poor fit]
28 | Cc1oc2ccc(O)c(CN3CCOCC3)c2c1C(=O)c1ccc(Cl)cc1 | inconclusive: 18.4 µM [activator, single point]
29 | O=[N+]([O-])c1cccc(NC(=S)NCc2ccncc2)c1 | inactive
30 | C[C@@H](NC(=O)OC(C)(C)C)c1nnc(S(=O)(=O)Cc2ccccc2)o1 | active: 18.4 µM
31 | O=C(CCc1ccccc1)Nc1c(F)c(F)c(F)c(F)c1F | inactive
32 | O=C(O)C1C2C=CC(C2)C1C(=O)NCc1ccc(Cl)cc1Cl (stereo not drawn) | inconclusive: 29.1 µM [activator, partial curve, poor fit]
33 | COc1ccc(CCNCC(O)COc2cccc(C(C)=O)c2)cc1OC (stereo not drawn) | inactive
34 | CC(C)(C)C(=O)/C=C(N)/C=C/c1ccccc1 | inconclusive: 29.1 µM [activator, single point]
35 | CCOc1ccc(N(C)S(=O)(=O)c2cc(-c3cc(C)no3)ccc2C(C)C)cc1 | inconclusive: 3.26 µM [activator, full curve]
36 | COc1ccccc1CNC(=O)c1ccc(-c2ccccc2Cl)o1 | inconclusive: 23.1 µM [activator, partial curve, poor fit]
37 | COc1cccc(C=NN2CCCCCC2)c1OC | inconclusive: 18.4 µM [activator, single point]
38 | O=C(c1ccc(Br)cc1)C(CN1CCOCC1)c1ccccc1 (stereo not drawn) | active: 18.4 µM
39 | Cc1ccc(S(=O)(=O)Oc2ccccc2/C=N/NC(N)=S)cc1 | inconclusive: 18.4 µM [activator, single point]
40 | CCCCc1c(C)nc(N2CCCC2)[nH]c1=O | inactive
41 | Cc1[nH]c2ccccc2c1SCC(=O)N1CCCCC1 | active: 5.8 µM
42 | O=[N+]([O-])c1cccnc1Oc1ccccc1F | inconclusive: 20.6 µM [activator, single point]
43 | CSc1sc(-c2ccnc(SCC(=O)C(C)(C)C)n2)c2c1C(=O)CC(C)(C)C2 | inconclusive: 3.26 µM [activator, full curve]
44 | O=C(NCCN1C(=O)S/C(=C\c2ccc(Cl)c(Cl)c2)C1=O)c1ccc2c(c1)C(=O)N(Cc1ccncc1)C2=O | active: 16.4 µM
45 | Cc1ccc(NC(=O)CCc2c(C)nn(-c3ccc(N4CCCCC4)nn3)c2C)cc1C | inconclusive: 20.6 µM [activator, single point]
46 | CN(Cc1ccccc1)C(=O)c1cnc2n(c1=O)CCS2 | inactive

Row | Structure (SMILES) | Potency
47 | CCc1ccc(OCCCCCn2ccnc2)cc1 | inconclusive: 2.06 µM [activator, full curve, poor fit]
48 | CCOC(=O)N1CCN(C(=O)Cn2nc(C)n3nc(-c4ccc(CC)cc4)cc3c2=O)CC1 | inactive
49 | CCOC(=O)c1cc2c(=O)c3cc(C)ccc3oc2nc1C | inconclusive: 29.1 µM [activator, partial curve, poor fit]
50 | Cc1ncc(C[n+]2csc(CCOC(=O)CC34CC5CC(CC(C5)C3)C4)c2C)c(N)n1 | inconclusive: 8.2 µM [activator, partial curve, poor fit]
51 | CN1C(=O)CS/C1=N\NC(=O)COc1cccc2cccnc12 | inconclusive: 6.51 µM [activator, single point]
52 | O=C(/C=C/c1ccc(S(=O)(=O)N2CCOCC2)cc1)NC(=S)NCCCn1ccnc1 | inconclusive: 29.1 µM [activator, single point]
53 | CCn1c(=O)cc(OCC(=O)NCCCN2CCC(C)CC2)c2ccccc21 | inconclusive: 29.1 µM [activator, single point]
54 | Cc1ccc(NC(=O)COC(=O)/C=C/c2c(C)nn(-c3ccc(F)cc3)c2Cl)cc1F | inconclusive: 25.9 µM [activator, single point]
55 | COc1ccc(-c2nnc3ccc(SC(C(C)=O)C(C)=O)nn23)cc1OC | inconclusive: 1.64 µM [activator, partial curve, poor fit]
56 | Cc1ccc(C)n1-c1ccc(N2CCOCC2)c([N+](=O)[O-])c1 | inconclusive: 29.1 µM [activator, single point]
57 | CC(=O)NS(=O)(=O)c1ccc(NC(=O)c2cc3c(=O)n4ccccc4nc3s2)cc1 | inconclusive: 20.6 µM [activator, single point]
58 | O=C(c1cccnc1)N1CCN(Cc2cccc(Br)c2)CC1 | inconclusive: 0.326 µM [activator, full curve, poor fit]
59 | Cc1ccc(S(=O)(=O)c2nc(S(=O)(=O)c3ccccc3)sc2N2CCN(C)CC2)cc1 | active: 23.1 µM
60 | O=C(NC1CCN(Cc2ccccc2)CC1)c1ccccc1OCc1ccccc1 | inactive
61 | CC(=O)N(O)CCCCCNC(=O)CCC(=O)N(O)CCCCCNC(=O)CCC(=O)N(O)CCCCCN | inconclusive: 92 nM [activator, full curve, poor fit] and inconclusive: 146 nM [activator, partial curve, poor fit]
62 | Cc1cc(=O)oc2cc(OCC(=O)N3CCC(C(N)=O)CC3)ccc12 | inactive
63 | Cc1csc(NC(=O)c2cc3c(s2)CCC3)n1 | inconclusive: 4.11 µM [activator, full curve, poor fit]
64 | CCC(C)[C@H](NC(=O)[C@@H]1Cc2c([nH]c3ccccc23)C2c3ccccc3C(=O)N21)C(=O)NCC1CCCO1 (stereo partly drawn) | inactive
65 | COC(=O)COc1ccc(S(=O)(=O)Nc2ccc(NC(C)=O)cc2)cc1 | inconclusive: 29.1 µM [activator, single point]
66 | CN(C)C(/C=C/Nc1ccc(F)cc1)=C(C#N)C#N | inconclusive: 25.9 µM [activator, single point]
67 | O=C(NC1CCCCCCC1)c1c(O)c2ccccc2[nH]c1=O | inconclusive: 6.51 µM [activator, single point]
68 | COc1ccc(-c2oc3ccccc3c2C(=O)Oc2ccccc2)cc1 | inconclusive: 29.1 µM [activator, single point]
